PubChem BioAssay AID1452 (National Center for Advancing Translational Sciences (NCATS), 2008)
Among all 150,000 compounds or so, about 190 (0.13%) were called active. The call rests on the fitted dose curve; in most records, active means well fitted inhibition curve with a large enough effect; inconclusive means small, poorly fitted or top-dose-only effect; inactive means flat fitted curve, though single readings scatter. Inconclusive results, whose numbers are uncertain, are shown. Potencies beside an inconclusive call are fits to weak or partial responses and may not hold up.

biological target: Polyunsaturated fatty acid lipoxygenase ALOX12 (Homo sapiens) (UniProt P18054); test: qHTS Assay for Inhibitors of 12-hLO (12-human lipoxygenase); settings: purified 12-hLO, xylenol orange hydroperoxide absorbance; series mostly up to 57.1 µM; further: nearly all actives have a fitted effect of over 55% in size
Excerpt: Assay Provider: Holman, T.R., University of California, Santa Cruz Screening Center PI: Austin, C.P. Screening Center: NIH Chemical Genomics Center [NCGC] Human lipoxygenase 12hLO is a member of the closely related lipoxygenase family of enzymes which catalyze the site-specific oxidation of arachidonic acid to various hormone precursor molecules and as such is a candidate for drug development in a variety of disease areas, such as cancer and inflammation. Inhibition of 12hLO activity was screened by utilizing arachidonic acid as a substrate. The extent of hydroperoxide product formation was measured by a secondary chromogenic reaction in which xylenol orange (XO, Sigma-Aldrich, cat. number 39,818-7) reacts with the ferric ions produced from the reaction between the hydroperoxide and ferrous ions. The Fe(III)-XO complex is characterized with red-shifted absorbance at 560 nm. A purified preparation of human 12hLO was supplied by Professor Ted Holman, University of California, Santa Cruz.
Assay Protocol: Buffer: 25 mM Hepes pH 7.0, 0.01% Triton X-100. Reagents/Controls: Buffer in columns 3 and 4 as negative control (no enzyme). […] The absorbance at 405 and 573 nm were measured using ViewLux (Perkin-Elmer) High-throughput CCD imager and absorbance protocol settings. The 573-to-405 absorbance ratio was used to compute reaction progress.
Potency means the concentration at half of the fitted maximal effect; tags describe the fitted curve by direction and shape.

Sequence of UniProt P18054 (P18054 whole entry, looked up): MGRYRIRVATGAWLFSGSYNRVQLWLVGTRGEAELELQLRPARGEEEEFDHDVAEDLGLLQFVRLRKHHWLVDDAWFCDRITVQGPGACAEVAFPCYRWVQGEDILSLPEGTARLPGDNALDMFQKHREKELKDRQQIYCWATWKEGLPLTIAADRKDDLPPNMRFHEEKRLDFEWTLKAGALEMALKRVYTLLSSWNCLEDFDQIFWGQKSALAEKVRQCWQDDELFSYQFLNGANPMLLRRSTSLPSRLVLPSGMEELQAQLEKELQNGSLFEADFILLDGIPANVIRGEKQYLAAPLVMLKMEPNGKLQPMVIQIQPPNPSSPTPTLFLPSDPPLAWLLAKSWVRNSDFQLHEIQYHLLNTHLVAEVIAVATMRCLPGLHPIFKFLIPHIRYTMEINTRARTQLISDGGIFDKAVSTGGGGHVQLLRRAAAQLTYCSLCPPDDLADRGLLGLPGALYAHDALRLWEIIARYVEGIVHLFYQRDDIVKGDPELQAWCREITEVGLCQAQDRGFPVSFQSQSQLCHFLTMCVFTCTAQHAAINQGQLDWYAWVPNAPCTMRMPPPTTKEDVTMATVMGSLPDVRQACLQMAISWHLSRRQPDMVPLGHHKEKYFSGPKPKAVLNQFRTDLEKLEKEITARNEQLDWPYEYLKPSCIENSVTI

**Q.** For `O=C1NN(c2ccc(F)c(Cl)c2)C(=O)/C1=C\c1cccc(OC(=O)c2cccs2)c1`, which Potency is on record?
**A.** inconclusive: 31.6 µM [inhibitor, single point]
